Sequences and labels used below:
B1: LINE1-mini (parent)
chain: GGCAGAGCUCAACACAGCGUGGCAAAGUGGCUGUGGCUAGACUGCC

The values that follow come from the RNAGym collection of RNA variant scans (doi:10.7554/elife.90254).

Read counts are not given, so values of variants with three or more changes are uncertain.

The variants in this data set derive from B1. Nature of the data set: self-cleavage, relative activity (ratio to wild type); higher = more cleavage; in vitro, sequencing; the parent is a self-cleaving ribozyme.
Turning to C8G C37A A39G, the self-cleavage was 0.02.
The value for C10A G19U G30C A39U G44C was 0.04; that for C3A G22A A41C G44A was 0.05; that for G17A G36U C42U was 0.04.
To A4C C10G G35A G44U belongs 0.
The value for C3U G5U G21A A26G G35U A39G C45G was 0.17.
C13G G36A A41C: the self-cleavage is 0.06.
Turning to A12G U38G C45U, the self-cleavage was 0.02.
As to U28A C42A C46A, the self-cleavage is 0.07.
For C10G G17C A26G, the self-cleavage was 0.02.
To A11G C15G C18U C23G C37U belongs 0.
The value for C10G A39G C42A was 0.05.
The value for G2U C18U G36C U43C C45G was 0.02; that for U20G C23A A26U C46U was 0.48.
For the variant C13A U38G G44U C45U, the self-cleavage was found to be 0.01.
To A14C A25U U38C A41G belongs 0.08; to G21C G22A C37U U38C C42U, 0.01.
Take G7U C8U A25C: the self-cleavage came to 0.4.
For the variant G2C C10U A14G A16C, the self-cleavage is 0.02.
With G7U C23U U34C, the self-cleavage was 0.1.
To C15U C31U G40U C42U belongs 0.05.
As for A4U A24U G35U, the self-cleavage was 0.07.
To A4U G35U G44A belongs 0.04.
The value for A12C G19C G21A G30C was 0.01; that for A25G G35C A41G was 0.1.
Take G21U C23A G40C C42A: the self-cleavage was 0.15.
The value for C3A A11C G40C A41U was 0.06.
The value for C8A A14U G40A was 0.25.
To C10G C13A G21U G40A belongs 0.01; to G7A C8U C10U A14G U28G, 0.02; to A4G C13U U28A, 0.06.
G5C A16C G19C G36C C46G: the self-cleavage worked out at 0.02.
Take G21U G35U G44A: the self-cleavage stood at 0.06.
The value for C10G G19A C37G U38A G44U was 0; that for G1U C10U C42G was 0.01; that for A24G G30A G36A C37A C45U was 0.05.
The value for C8A G19C U34G A41U was 0.19.
To G17A A26G U32A G36C belongs 0.
As for U20A A24C G29C C31G, the self-cleavage stood at 0.33.
To G5C C8A A12C belongs 0.13; to C15G U20G U28G, 0.08.
To G17A G21A G36U C37A G40A belongs 0.12; to A25U U32G G33C, 0.03.
A11G C13G G17A: the self-cleavage stood at 0.04.
To A11G C13A G21A G30A U34G C46A belongs 0; to A11U C13G A25C G27A, 0.
To C15U C31G U34C belongs 0.11; to G5A C15U G27A U28A U38G C42G, 0.02; to U9C A14C G33U C46A, 0.01.
In the case of G2A G30U G33U C37A C42A, the self-cleavage came to 0.16.
To C3A C13G C23G C31U belongs 0.18; to C10A G21U U28C, 0.05; to C10U A14U G29C, 0.19.
A6G A14G G29U G30U G36U G44A: the self-cleavage was determined as 0.01.
To A14G C23A C37A belongs 0.
The value for C8G G29A A39G was 0.08; that for C3G U9A U34G A39C C42A G44A was 0.05; that for A14U G19C A26C was 0.4.
The value for C18G A26U U43C G44A C45G was 0.02; that for A11C A14U U32A G33U was 0.02.
On to U20C G36C U38G C45U, for which the self-cleavage turned out to be 0.01.
The value for G22U A26U U34C was 0.32; that for C8G A26C U28G C31A was 0.01.
The value for C18U U28A C31G U34C C46G was 0.01.
To A6U C10U C46A belongs 0.04; to G5A U28A C37U, 0.12; to G7C C8G A25U G44C, 0.09.
With A11C U38C G40A G44C, the self-cleavage stood at 0.
The value for G2U A26C G33U was 0.
The value for C10A G33C A39G C46G was 0.
To G22A C23A G44U belongs 0.12.
Consider C15G G30A G44U, for which the self-cleavage was 0.05.
To U9C C13A C42U belongs 0.01.
The value for G36U U43G G44U was 1.
Regarding G17A C23A C31U G36U, the self-cleavage was 0.03.
The value for G1A A26U C31G C46A was 0.15; that for G17A C37A A41U was 0; that for G22U A26U C31U C42G was 0.29.
The value for C18A G44A C45G was 0.09.
The value for G1C C10A G30C was 0.01.
Turning to A16U G21U G30C, the self-cleavage came out at 0.72.
To A6U G7C C31A belongs 0.03; to C8A G30A G40A U43G, 0.31.
To C13A A26U C37U belongs 0.4; to C10G U28C G36U C42U, 0.01; to G2C G7C A12U G29C A41U C42U, 0.11.
To A4C G21U U28A A41C C46U belongs 0.03.
On to C18G G19C C31U G40C, for which the self-cleavage turned out to be 0.01.
To G35C C45A C46U belongs 0.04.
The value for G7C C8G G19U was 0.07; that for A6U G17U C18G U34C U38A was 0.07; that for A11U U20G G27U A41G was 0.
Turning to G7A C13A A26G G27U, the self-cleavage amounted to 0.22.
In the case of G17U A26C C31U G36C C42U, the self-cleavage was found to be 0.02.
Consider U20C G27U G36U, for which the self-cleavage is 0.06.
The value for G2A A16U G17A G19U A26C was 0.02; that for A14G C18A U20C U34C A39C was 0.05.
To C10U U20C U38G belongs 0.01; to C31U G33C G35A C37G A39U A41U, 0.26.
The value for G21U G29U U43A was 0.05; that for A11U U20C A26C G27A C37G was 0.
As to A12U C18U G27C G44C, the self-cleavage worked out at 0.05.
Turning to A6C C18A G19U, the self-cleavage was determined as 0.04.
To C8G A26G C37A belongs 0.04; to G2A A11U C18U U34G, 0.05; to C10U G17A A24G A39U, 0.52.
To C10G C15U G35U A41C belongs 0.03; to C3A G29A U38G, 0.18; to C15A G40U C46U, 0.04.
The value for G7A G19A G33U was 0.2; that for C13A C18G G21A C46U was 0.07; that for G17C U34C G36U C37U was 0.1.
With G2A C13U G19U C23A U32A, the self-cleavage was 0.28.
The value for A6G C13U C37A was 0.03; that for G7A C8A U32A G35U C42G was 0.87.
The value for G2U A11U C15U C23A A26G C31U A41U was 0; that for U9C A14G A16G C23G A26G G36U A39G was 0.
To A4G C8G C18G A26C G30C belongs 0.01; to A12C A16C G36U U38A, 0.1.
Consider G1C G7U A25U G35U, for which the self-cleavage amounted to 0.03.
To C3A G22C C42A belongs 0.06.
To G7C C10A G19A U38A belongs 0.01.
The value for G17A G21A U34G was 0; that for U9C G19A C45G was 0.04; that for A4G G22A A25C G40C was 0.07.
As for G1A G36U U38A, the self-cleavage was 0.07.
For the variant C13G A26C C37U C46A, the self-cleavage worked out at 0.07.
The value for A11C C13U G29U was 0.05; that for G2C C23U U38A was 0.44; that for A24G G27A G35U U38C G44A was 0.03.
On to G5U A12U G19U A25C C31A A41U, for which the self-cleavage came out at 0.02.
To A6C A16C G30A belongs 0.05; to G1U A14C U38A A39C, 0.01.
The value for C10A C13A G40A C42U was 0.01.
To G2U U9A A26U belongs 0.13.
For G19A A24G G35C C46U, the self-cleavage amounted to 0.07.
The value for A26C G33C U34G G35U was 0.03; that for G27U G29U G35A A41G was 0.04.
The value for G17A U20C G27A C42A was 0.05; that for G1C A24C A41G was 0.03.
To A12G G17U C46U belongs 0.01; to A6C C8A C23G G30U, 0.07; to U20G U28G C42U, 0.4.
For the variant G2A C13A A39U, the self-cleavage amounted to 0.51.
To G29A C31G U38C belongs 0.89; to A6C C10G A12C C15G A16C C18A G19A A41U, 0.02.
For G5U G27U G30U G40U, the self-cleavage turned out to be 0.01.
The value for A11U G35U C37A G40C A41U C45A was 0.03; that for C10U C18A U43A was 0.05; that for C13U C15A G17C was 0.12.
To C10G U28A C46A belongs 0.05; to A25C G33C G35A C37U, 0.01; to G7A C13G G30C C37G A39U, 0.01.
The value for A6G C13G C15A A41G was 0.14; that for G5U G7C A14G C15A was 0.11.
Take A6U U9G G27A: the self-cleavage stood at 0.02.
To A24G G30U G36C belongs 0.03; to C15G G36A U38A, 0.04; to G7U C8G U9A G17C A25G, 0.05.
To G22A C23U G40A G44C belongs 0.05; to A6U G17A G30A, 0.24.
The value for C8U G19A C45U was 0.15; that for A6G C31G C46A was 0; that for G27C A39G G40U was 0.06.
As for A4U C8A U9A, the self-cleavage was determined as 0.12.
To U9C C13G C31G C42A belongs 0.01.
To G7U C8A G29A C31U U32A belongs 0.16.
